The text below walks through data of PMC8249616, “Structural basis of the activation of c-MET receptor” (Nature Communications, 2021).

B1: HGF E159R (ligand)
chain: not shown
notes: signal peptide in the construct; full-length human HGF with a point mutation in the K1 domain; source: HEK293F, secreted, purified
B2: HGF W321R/E361R/Y376A (ligand)
chain: not shown
notes: signal peptide in the construct; full-length human HGF with a triple mutation in the K3 domain; also called HGF W321R/E361R/Y376A triple mutant; source: HEK293F, secreted, purified
B3: HGF R242E/K244E/R249E (ligand)
chain: not shown
notes: signal peptide in the construct; full-length human HGF with a triple mutation in the K2 domain; also called HGF R242E/K244E/R249E triple mutant; source: HEK293F, secreted, purified

For the assay, the target named is T1, c-MET927-TSI3-His (c-MET 1-927 with Tsi3 and His6 tags kept) (human, UniProt P08581 25-927).
T1 construct: signal peptide in the construct; Bait of the pull-down, held on TSE resin by its Tsi3 tag; also called TSI tagged c-MET927; source: HEK293F infected with baculovirus (pEZT-BM), secreted, purified; not shown: Tsi3, C-terminal, kept; His6, C-terminal, kept
T1 sequence (P08581 25-927): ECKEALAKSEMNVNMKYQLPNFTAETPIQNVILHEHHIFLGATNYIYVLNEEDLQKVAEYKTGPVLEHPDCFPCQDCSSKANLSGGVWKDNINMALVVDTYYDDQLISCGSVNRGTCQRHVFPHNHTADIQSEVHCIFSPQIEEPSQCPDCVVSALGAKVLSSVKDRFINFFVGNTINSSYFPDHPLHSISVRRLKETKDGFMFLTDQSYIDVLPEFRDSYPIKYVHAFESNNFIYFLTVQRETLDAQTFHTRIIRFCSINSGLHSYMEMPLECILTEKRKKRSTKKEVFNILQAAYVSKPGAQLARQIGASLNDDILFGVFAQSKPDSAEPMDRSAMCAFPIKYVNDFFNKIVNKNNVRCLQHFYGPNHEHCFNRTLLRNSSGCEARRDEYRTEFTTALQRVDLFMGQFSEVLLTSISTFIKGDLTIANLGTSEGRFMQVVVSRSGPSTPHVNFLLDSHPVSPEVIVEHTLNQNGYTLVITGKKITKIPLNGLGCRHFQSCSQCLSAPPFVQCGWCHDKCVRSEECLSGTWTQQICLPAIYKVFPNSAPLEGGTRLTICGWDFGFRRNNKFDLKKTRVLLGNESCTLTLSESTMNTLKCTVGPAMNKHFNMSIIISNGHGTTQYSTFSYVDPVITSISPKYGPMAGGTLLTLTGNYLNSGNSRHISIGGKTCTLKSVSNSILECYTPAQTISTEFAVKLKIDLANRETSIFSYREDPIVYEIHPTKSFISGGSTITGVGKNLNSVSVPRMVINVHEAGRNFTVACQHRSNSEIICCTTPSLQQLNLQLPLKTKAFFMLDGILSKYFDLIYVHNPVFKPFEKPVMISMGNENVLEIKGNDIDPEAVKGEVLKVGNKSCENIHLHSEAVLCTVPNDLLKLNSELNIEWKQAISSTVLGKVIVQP
As to the kind of experiment: pull-down; 5 ug c-MET927-TSI3-His immobilised on TSE resin as bait; 5 ug HGF wild type or mutant as prey in 50 ul PBS with 10 uM Tinzaparin and 2 mM CaCl2, 1 h at 4 degrees; SDS-PAGE, band intensity by ImageJ. The note with it: both partners purified.
With B1, the binding result is listed as “binds”.

Consider B2, for which the binding result was “binds”. The entry for B3 is “binds”.
